According to the supplement of paper PMC11417369:
Some of the results follow.

Each sequence was assayed on PfAP2-HC AP2 domain (GST-tagged) (assay: gcPBM binding intensity (ln(normalized median fluorescence intensity)); higher = stronger DNA binding).
Procedure, shortened: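 Each value is the highest Masliner-normalised natural-log median intensity across replicate spots of either orientation of a probe. The probes were primer-extended double-stranded 36-bp intergenic genomic sequences on an Agilent 4 × 180k array, alongside negative controls, exposed for 1 h to GST-tagged P. falciparum DNA-binding domains expressed in E. coli. Bound protein was picked up with Alexa488 anti-GST antibody and scanned at 488 nm.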

Row | Sequence | gcPBM binding intensity (ln)
1 | TCTTGTTATAATAATCAATATATGGGTATACTTATG [CACACA_negctrl_site1618] | 9.59
2 | AAAAGGATTTTTTATACACACACTAACTAATGTATA [CACACA_site2356] | 9.88
3 | AAATAATAAATATATCGTACAAATATCATATATAAA [XGTACX_site2771] | 9.69
4 | TTTTTTCTTTTTATAACACACAGGTGAAAAATAATA [CACACA_site1850] | 9.52
5 | TCCTGTTGAGAATGGCGTACATATAAATATTATATA [XGTACX_site1841] | 9.45
6 | TTTCCTCATTTTATCATACACACTTGTTTATATGTG [CACACA_site8202] | 9.87
7 | TATTACTTTATATATACACACATATAACATAAATGC [CACACA_site3948] | 9.78
8 | CAGGTTCTTATATAGTGTACTATAGACATTCAATTG [XGTACX_site7239] | 9.64
9 | TAAATAATAATAAAATGTACATTATATATGTATATG [XGTACX_site8672] | 9.73
10 | TTTTTTTTTTTTTTCTGTACTGATACTTATAGAGTT [XGTACX_site4736] | 9.49
11 | ATATACTTACATATTACACACAATATTTTTAAATGG [CACACA_site5916] | 9.76
12 | CTTTTGCCCAAAAAGGTACACACCACAAAGTACATA [CACACA_site8169] | 9.61
13 | TATTTATAATTAAATACACACATATATTATAGATTT [CACACA_site6435] | 9.67
14 | TTGTATATACTATACACACACATACATACATACATA [CACACA_site814] | 10
15 | TTTTATTCATCATATTGTACATTCTTGTATTTATAG [XGTACX_site8534] | 9.83
16 | AATAAAAAATAAAAAAGTACATGATGAAAAGGTTTA [XGTACX_site7615] | 9.99
17 | TCCCTGATGTTATTTAATATACCATAAAAAAAAAAA [CACACA_negctrl_site1472] | 9.23
18 | CACACTTTATAATGTTGTACGATACATTATACCAAA [XGTACX_site941] | 9.67
19 | TATATATATATATATACATGCATACAATTTTATGAG [TGCATGCA_site466] | 9.61
20 | ACCCATATTCTTTTTACACACTTGAATAAAAAATAT [CACACA_site4797] | 9.64
21 | GAGATATAAAAGTGTACACATATTGTTATCCATATT [CACACA_site5441] | 9.73
22 | AAAGAAATAAAAAAAAGTACACAATTATAAATATAT [XGTACX_site3428] | 9.69

Row | Sequence | gcPBM binding intensity (ln)
23 | GTATGTAATATTTTAGTGCAAAAAAAAAAAAAAAAA [GTGCAC_site9790] | 9.01
24 | CGCGAACATACATACACACACATATTTATATAGGTA [CACACA_site6241] | 10.1
25 | AAAATACTTTGAATTTGTACATATAGACATAATATT [XGTACX_site6181] | 9.59
26 | GATTATCTATCGCTTGAATGAAATGAAATCATGCAA [GTGCAC_negctrl_site471] | 9.41
27 | ATAATAAATGATAGCACACATATGTACATATATACA [CACACA_site864] | 9.87
28 | AATACCGGAAAGCAAACACACATTTTAAAACCATAA [CACACA_site3862] | 10.2
29 | AAATAAAATAAAAGCACACAAAATGTAAATAATTAT [CACACA_site2775] | 10.2
30 | ACTATAAATATTTATAAACACACAAATATATATATT [CACACA_site7891] | 9.88
31 | ATTTATAAAACAGGCACACATATAATAAATTTTATA [CACACA_site2600] | 9.79
32 | TAATAATTATTGCACGCACACAAAAACCTATAGATT [CACACA_site2931] | 9.86
33 | ATACAATACACCGAACGTACATAAATCTATCTTTTA [XGTACX_site3668] | 9.73
34 | ATTTTTTTTTTTACAGTGGAACCATATTTGCTCATT [CACACA_negctrl_site940] | 9.72
35 | TATATATATATAATTTGTACATATATATGTAACAAT [XGTACX_site8728] | 9.55
36 | TTCTGCTACCACTTGAATGTCAATGAAATTAAAAAA [CACACA_negctrl_site1164] | 9.44
37 | TTTTAAAAAAAACAAAAACATTGTCATATGGAAAAT [CACACA_negctrl_site297] | 9.51
38 | GTATGTTAATTTAATTGTACAAAAAGATACACTGAT [XGTACX_site5710] | 9.71
39 | AAATATAAAAAATATACACACATATAAAATCTATAT [CACACA_site7406] | 9.91
40 | AGGAACAATATATTTGCACACAAAAAATATATATTT [CACACA_site3316] | 9.97
41 | TTTATATATCAATACATTATGTATTAAGTCTTACAT [TGCATGCA_negctrl_site499] | 9.77
42 | CAAAAAAAATTATACACACACACACCGATATATATA [CACACA_site4719] | 11.1
43 | TTTTAATTAAAAAAATATATAATAAAATTAAATTAT [CACACA_negctrl_site95] | 9.32
44 | GGTATATAAAAATATTGTACGAAAATATGCATATAA [XGTACX_site2501] | 9.63

Row | Sequence | gcPBM binding intensity (ln)
45 | ATGTTAATCATTAAAAATAAAGTTTAATATAAGAAT [XGTACX_negctrl_site155] | 9.66
46 | CAAAACAAGCAAAAATGTACTTGATAAATATTTTCT [XGTACX_site1776] | 9.65
47 | AACATACCCATATACACACACACATAAATACAGATA [CACACA_site4744] | 10.5
48 | ATTTAATTCTTTTGTTATAAAATTTTAGTATATATA [CACACA_negctrl_site1649] | 9.66
49 | GCTAAAAGTATATGCACACACATATATATGCACATA [CACACA_site1635] | 10.2
50 | TTTTGTACTTCATGCGTGCACAGAAATATATTATAT | 9.69
51 | GAATAAGATAGATATACACACCATTATAAATATAAA [CACACA_site5392] | 9.81
52 | TAAATACTAATATGTACACACATATAGATATAGATT [CACACA_site7247] | 9.8
53 | TTAAATAGATAAACTAAACACACAAAAAAAAAAAAA [CACACA_site8308] | 9.78
54 | TGTGCAAGATTTTTCTGTACATATATATAAATATAT [XGTACX_site1796] | 9.42
55 | AAATATTCTTGTTTAATACACACTGTAGTATTATAT [CACACA_site433] | 9.83
56 | CTATTATAATATTTTACACACCATGTAAAATATATA [CACACA_site3206] | 9.61
57 | ATCATTCTTCATTTGTCACACATGATAAAAATATAT [CACACA_site4953] | 9.7
58 | CTATTTTGGATGTGTACACATATATATATTTATATT [CACACA_site5706] | 9.9
59 | TTTTTTAAGTAATGAAATGATTTTCTTATAGAATAA [GTGCAC_negctrl_site395] | 9.15
60 | CATTAACATTTTATTACACACAATAATTTATAAGTA [CACACA_site4083] | 9.6
61 | ATTTATATTTGTATTTGTACTTATATTTATATTTAT [XGTACX_site1540] | 10.1
62 | GCTTTTGTCATGTGCACACACGTATATATTATATAT [CACACA_site6146] | 10.9
63 | AAAAAGGTTAAGGTAGTGCATAATAAAGAATATTAA | 9.75
64 | TATGTGCCAAAACACACACACATATATATATATATA [CACACA_site469] | 10
65 | TAGGCCTTAAATCGTGTGCACTTTTTTTTTTTTTTT | 9.77
66 | CAAATTATTATTTAAGCACACATGTTTATTTTTTTT [CACACA_site2672] | 9.8

Row | Sequence | gcPBM binding intensity (ln)
67 | TTTTTTTTTTTTTTTTTTGGTGAGAGAAGAAAATTC [CACACA_negctrl_site950] | 8.82
68 | AAATATATCAATATATATATATATATATATATATAT [XGTACX_negctrl_site544] | 9.42
69 | TTTTGTACAAAAATAATGCACACTATATCAAGTTTT [CACACA_site3595] | 9.68
70 | ATATAAAAAGGAAAAAGTACAAAAAAATGTTTGTGA [XGTACX_site8552] | 9.64
71 | AAGAAAATATATTCACATGAAGAATTAAAATAAAAC [TGCATGCA_negctrl_site119] | 9.76
72 | ATTTATTTATATAATACACACAAATATCTTAATTAA [CACACA_site3993] | 9.51
73 | TGGATATAAAACAACGTGCACTTGGTTGATTTTAAA [GTGCAC_site9900] | 9.59
74 | TATGGTAAATACAACACACACACATATGTATTTATA [CACACA_site4666] | 10.3
75 | AAAAAAAAAAAAAATTGTACATAATAAAAATATGGA [XGTACX_site3189] | 9.47
76 | TGTTTATTCTTTAAATATTATTCAAATACTACAAGT [CACACA_negctrl_site746] | 9.41
77 | CACAGACACGGACACACACACACACCCATATATATA [CACACA_site4354] | 11.3
78 | ATACAAGAATTAAACACACACAAAATATAAATTCTT [CACACA_site3005] | 10.1
79 | AGCAACCTGAAAAAATTACTCTTTCTTAAACAAATT [XGTACX_negctrl_site266] | 9.37
80 | ACCTGTAAAAATGTTTATATATATATATATATATAT [CACACA_negctrl_site1500] | 9.95
81 | TTAAGGATTAAGGTGTGTACATATAAATATTATATA [XGTACX_site7532] | 9.68
82 | AATATTAAATGAAAAAGTACAAACAGTCCTATATTA [XGTACX_site1926] | 9.63
83 | ATTTATATAAAGAATGTACACACAGAAATGCACCCA [CACACA_site8715] | 10
84 | CGTATGCACAAATTATGTACTTATATATATATATAT [XGTACX_site2348] | 9.69
85 | TAAATATATATATGTGTGCACTTCTTCATTTTAATA [GTGCAC_site9537] | 9.89
86 | AAAAAAAAAAAACATACACACAAATAAATACATACA [CACACA_site6073] | 10.1
87 | CGGCACATTATATATACACACATATAAATAAATACA [CACACA_site4477] | 9.8
88 | TATATATATAAGTGCACACTGAACCAAGAAAATTAT [CACACA_site3008] | 10
